The full ranking holds about 110,000 compounds; the median of “z-score” is about -0.1, and the highest 2% start at about 2. This is one part of the list.
The molecules below were run against Metabotropic glutamate receptor 8 (Rattus norvegicus) (UniProt P70579) (assay: rat mGluR8 modulators via GIRK flux, primary screen, cell-based, thallium flux, HTS (AID 488969)). Details: HEK293 rat mGluR8, GIRK (G protein-gated inwardly rectifying potassium channel) thallium flux, FluoZin2; at 10 µM; stronger effect = higher value; submaximal glutamate (EC20) added with thallium.
UniProt P70579, sequence (P70579 whole entry, looked up): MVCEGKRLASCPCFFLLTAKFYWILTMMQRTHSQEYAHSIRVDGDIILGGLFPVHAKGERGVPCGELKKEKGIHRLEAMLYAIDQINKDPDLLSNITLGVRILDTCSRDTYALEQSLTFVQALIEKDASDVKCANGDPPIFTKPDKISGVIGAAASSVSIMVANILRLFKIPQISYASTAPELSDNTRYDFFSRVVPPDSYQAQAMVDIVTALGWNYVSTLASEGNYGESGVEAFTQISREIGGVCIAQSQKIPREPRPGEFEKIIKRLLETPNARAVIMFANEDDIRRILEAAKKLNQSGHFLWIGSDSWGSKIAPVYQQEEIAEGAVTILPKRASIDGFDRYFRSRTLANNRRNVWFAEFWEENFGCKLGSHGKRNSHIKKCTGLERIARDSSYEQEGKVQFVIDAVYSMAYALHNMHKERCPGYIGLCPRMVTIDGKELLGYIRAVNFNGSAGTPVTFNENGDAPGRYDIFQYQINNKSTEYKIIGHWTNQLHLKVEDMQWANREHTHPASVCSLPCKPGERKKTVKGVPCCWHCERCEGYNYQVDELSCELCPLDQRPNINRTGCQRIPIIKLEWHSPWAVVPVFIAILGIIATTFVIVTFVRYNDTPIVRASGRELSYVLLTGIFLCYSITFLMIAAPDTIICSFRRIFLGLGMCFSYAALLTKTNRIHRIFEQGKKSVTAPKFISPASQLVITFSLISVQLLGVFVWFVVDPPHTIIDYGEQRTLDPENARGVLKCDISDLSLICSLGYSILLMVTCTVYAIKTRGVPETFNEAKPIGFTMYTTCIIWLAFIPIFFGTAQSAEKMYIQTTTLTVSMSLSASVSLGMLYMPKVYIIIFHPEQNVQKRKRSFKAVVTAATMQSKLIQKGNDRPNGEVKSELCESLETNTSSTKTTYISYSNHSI

Structure (SMILES)	z-score
CCCCN(CC(=O)Nc1c(C)cccc1CC)C(=O)SCC	-1.1
COc1cccc(OCC(O)CN2CCN(c3ncccn3)CC2)c1 (centres undefined)	-0.278
OCCN1CN=C(Nc2nc3ccccc3o2)NC1	0.00528
CCn1c(SCC(=O)c2[nH]c(C)c(C(C)=O)c2C)nnc1-c1cccs1	0.574
Cc1cc(C(=O)NCC(=O)OCC(=O)Nc2ccc(OC(F)F)cc2)ccc1[N+](=O)[O-]	-0.413
Cc1ccc(C)c2nc3sc(C(=O)N4CCCc5ccccc54)c(N)c3cc12	-0.134
Cc1ccc(-n2cnc(=O)c3cccnc32)cc1	-0.0637
Nc1nc(CSc2nnnn2-c2ccc(F)c(Cl)c2)nc(N2CCOCC2)n1	-0.379
CCCCN(C)C(=O)c1coc(=O)c2ccccc12	-0.19
O=C(Cc1coc2ccc3ccccc3c12)NCc1ccccc1	0.0512
CCCc1cc(=O)[nH]c(SCC(=O)NC(=O)OCC)n1	-0.0127
COC(=O)c1ccccc1NC(=O)CN1C(=O)C2CCCN2c2ncc(Cl)cc21 (centres undefined)	-0.322
CC1CCN(C(=O)c2cc(F)c(F)cc2Cl)CC1	0.568
Cc1n[nH]c(C)c1S(=O)(=O)N(CC(=O)Nc1ccc2c(c1)OCCO2)c1ccc(C(C)C)cc1	-0.193
Cc1cccc(Oc2nc(-c3ccccc3)cc(C)c2S(C)(=O)=O)c1C	0.102
COc1ccc(C(=O)c2c[nH]c(C(=O)NCc3ccco3)c2)cc1	-0.236
Cc1cc(Cl)ccc1OCC(=O)NC1CCCC1	0.0341
COCCCNc1c2c3c(cccc3[nH]c1=O)C(=O)c1ccccc1-2	-1.46
COc1cc2[nH]cc(C(=O)NCCc3ccccc3)c(=O)c2cc1OC	-1.47
Cc1ccc(S(=O)(=O)NCCC(=O)N2CCCCC2)cc1	0.0206
COC(=O)CSc1nc2ccc(C)cc2[nH]1	-0.156
COc1ccc(OCC(O)CN(C2CCCCC2)C2CCCCC2)cc1 (centres undefined)	0.744
O=C(NCCn1cccc1)c1cccc2ccccc12	0.0293

Structure (SMILES)	z-score
c1ccc(Cn2nnnc2C(c2cccs2)N2CCCCCC2)cc1 (centres undefined)	0.764
COc1ccc2c(c1OC)C(=O)N1N=C(c3ccc(Cl)cc3)CC21 (centres undefined)	-0.308
Cn1ncc([N+](=O)[O-])c1C(=O)N1CCOCC1	0.104
CC(C)CC(C(=O)Oc1ccc2c3c(c(=O)oc2c1)CCC3)N1C(=O)c2ccccc2C1=O (centres undefined)	-0.621
COc1cccc(C2C(C(=O)OC(C)C)=C(C)Nc3ncnn32)c1 (centres undefined)	0.0834
O=C(Nc1ccc2c(c1)OCO2)N1CCN(c2ccccc2Cl)CC1	-0.291
CC1CN(C(=O)c2ccc3c(c2)OCO3)CC(C)O1 (centres undefined)	-0.138
COc1ccc(-c2c(C)n([O-])c3c([n+]2=O)CCC3)cc1OC	0.576
Cc1ccc(S(=O)(=O)N(C)C)cc1-n1c(SCC(=O)Nc2ccc(F)cc2)nc2ccccc2c1=O	-0.357
O=C(Nc1ccccc1[N+](=O)[O-])c1nc[nH]c1C(=O)NCCO	0.119
CS/C(=N\S(=O)(=O)c1ccc(N)cc1)NS(=O)(=O)c1cccs1	-0.08
CC(=O)SCC(=O)N=c1sc2cc(F)ccc2n1C	-0.618
COC(=O)c1c(NC(=O)COC(=O)CCc2ccc(S(=O)(=O)N3CCOCC3)cc2)sc2c1CCC2	-0.328
COC(=O)c1cc(OC)c(OC)cc1NC(=O)c1ccoc1C	0.388
CC1CCN(C(=S)c2cn(Cc3ccccc3F)c3ccccc23)CC1	0.0857
COc1cccc(-n2c(SCC(=O)N3c4ccccc4CC3C)nnc2-c2ccco2)c1 (centres undefined)	-1.15
CCCCN(CCCNC(=O)C1CCN(S(=O)(=O)N2CCOCC2)CC1)Cc1ccccc1	2.95
CCn1ccc(C(=O)NC2=C(C#N)CCC2)n1	-0.208
CCn1cc(Br)c(-c2nc3ccccc3c(=O)n2N)n1	-0.322
Cn1c(=O)c2c(nc(NCc3cccnc3)n2Cc2cccc(C(F)(F)F)c2)n(C)c1=O	-0.804
CCN(CC)S(=O)(=O)c1ccc(N2CCCCC2)c(NC(=O)/C(C#N)=C/c2ccc(OC)cc2)c1	-0.0436
CN(C)S(=O)(=O)N(Cc1ccc(Br)cc1)c1ccccc1	-0.612
Cc1ccc(Cn2cc(S(=O)(=O)c3ccc(Cl)cc3)c(=O)c3cc(F)ccc32)cc1	-0.041

Structure (SMILES)	z-score
COc1cccc(NC(=O)COC(=O)CNS(=O)(=O)c2c(F)cccc2F)c1	-0.285
Cc1ccc(OCC(=O)Nc2ccccc2-c2ccccc2)cc1	-0.289
Cc1ccc(N2C(=O)C(NC(=O)c3ccccc3)(C(F)(F)F)C3=C2CC(C)(C)CC3=O)cc1 (centres undefined)	0.115
Cc1ccc(NC(=O)COC(=O)/C=C/c2cccs2)cc1	0.41
COc1cc(C2C(C(C)=O)=C(O)C(=O)N2c2ccc(C)cc2)ccc1O (centres undefined)	0.346
Cc1ccc2nc(N3CCN(C)CC3)c(C#N)cc2c1	-1.52
CC(C)CC(OC(=O)c1cccs1)C(=O)NCc1ccco1 (centres undefined)	-0.0958
Cc1ccc(S(=O)(=O)NNC(=O)C(=O)NNc2ccccn2)cc1	0.262
CC(c1ccccc1)N1CC(C(=O)N2CCN(c3ccccc3)CC2)CC1=O (centres undefined)	0.0304
COC(=O)[C@@H](NC(=O)NC1CCCc2ccccc21)C(C)C (some centres undefined)	0.54
C=CCn1c(Cc2csc(N)n2)nnc1SCC(=O)Nc1ccccc1C(F)(F)F	-0.19
Cc1nnc(N/N=C/c2cc([N+](=O)[O-])c(N3CCC(C)CC3)cc2N2CCC(C)CC2)n1N	2.68
CC1CCc2c(sc(NC(=O)Cn3nc(C(F)(F)F)c4c3CCCCC4)c2C#N)C1 (centres undefined)	-0.198
O=C(Nc1cccc(Cl)c1)Nc1nc(-c2ccc(Cl)cc2)cs1	-0.494
O=C(O)c1ccc(S(=O)(=O)c2ccccc2)cc1	0.0716
Cc1cc(C)c(NC(=O)CN(C2CCCCC2)C2CCCCC2)c(C)c1	-0.05
COC(=O)c1sc(N)c(C(=O)OC)c1COC(=O)[C@@H](NS(=O)(=O)c1cccc(Cl)c1)C(C)C	-0.0185
N#Cc1nc(-c2ccco2)oc1N1CCOCC1	0.925
CCOC(=O)c1cnn2cc(-c3[nH]ncc3[N+](=O)[O-])cnc12	-0.273
O=C(Oc1cc(-c2ccccc2)no1)c1cccc(C(F)(F)F)c1	-0.626
CC(C)OC(=O)c1ccc(NC(=O)c2ccco2)cc1	1.5
CC(CC(=O)NCC1CCCO1)c1ccccc1 (centres undefined)	-0.159
O=C(CS(=O)(=O)c1c[nH]c2ccccc12)N1CCCc2ccccc21	-0.0477

Reference: PubChem BioAssay AID488969 (Vanderbilt High Throughput Screening Facility, 2010)
